Laboratory results: the RNAGym collection of RNA variant scans (doi:10.7554/elife.90254)
The source gives no read counts; variants with many changes may rest on few reads.

B1: LINE1-full (parent)
chain: UACGUAGGUGGUUUUCCCCUGAUAGUGCUAAGGGGGCCUGGAAGUUUGGACUGGGCAGAGCUCAACACAGCGUGGCAAAGUGGCUGUGGCUAGACUGCCUCUCUGGAUUCCUCGUCACUCAGCAGGGCAUCUCUGAGAGAAAUGCC

Variants of: B1
Assay: self-cleavage, relative activity (ratio to wild type); higher = more cleavage; in vitro, sequencing; the parent is a self-cleaving ribozyme

| Variant | self-cleavage |
| --- | --- |
| UACGUAGGUGGUUUUCCCCUGAUAGUGCUAAGGGGGCCUGGAAGUUUGGACUGGGCAGAGCUCAACACAGCGUGGCAAGGUGGCUGUGGCUAGACUGCCUCACUGAAUUCCUCGUCACUCAGCAGGGCAUCUCUGAGAGAAAUGCC [A79G U102A G106A] | 1.05 |
| UACGUAGGUGGUUUUCCCCUGAUAGUGCUAAGGGGGCCUGGAAGUUUGGACUGGGCAGAGCUCAACACAGCGUGGCAAGGUGGCUGUGGCUAGACUGCCUCUCCGGAUUCCUCGUCACUCAGCAGGGCAUCUCUGAGAGAUAUGCC [A79G U104C A141U] | 2.3 |
| UACGUAGGUGGUUUUCCCCUGAUAGUGCUAAGGGGGCCUGGAAGUUUGGACUGGGCAGAGCUCAACACAGCGUGGCAAGGUGGCUGUGGCUAGACUGCCUCUCUGGACUCCUCGUCACUCAGCAGGGCAUCUCUGAGAGAAGUGCC [A79G U108C A142G] | 2.4 |
| UACGUAGGUGGUUUUCCCCUGAUAGUGCUAAGGGGGCCUGGAAGUUUGGACUGGGCAGAGCUCAACACAGCGUGGCAAGGUGGCUGUGGCUAGACUGCCUCUCUGGAUUCCUCGACACUCAGCAGGGCAUCCCUGAGAGAAAUGCC [A79G U115A U132C] | 1.25 |
| UACGUAGGUGGUUUUCCCCUGAUAGUGCUAAGGGGGCCUGGAAGUUUGGACUGGGCAGAGCUCAACACAGCGUGGCAAGGUGGCUGUGGCUAGACUGCCUCUCUGGAUUCCUCGUCACUCAGCAGGGCACCUCUGAGAGAAGUGCC [A79G U130C A142G] | 1.08 |
| UACGUAGGUGGUUUUCCCCUGAUAGUGCUAAGGGGGCCUGGAAGUUUGGACUGGGCAGAGCUCAACACAGCGUGGCAAUGUGGCUGUGGCUCGACUGCCUCUCUGGAUUCCUCGUCACUCAGCAGGGCAUCUCUGAGAGAUAAGCC [A79U A92C A141U U143A] | 0.27 |
| UACGUAGGUGGUUUUCCCCUGAUAGUGCUAAGGGGGCCUGGAAGUUUGGACUGGGCAGAGCUCAACACAGCGUGGCAAUGUGGCUGUGGCUAGGCUGCCUCUCUGGAUUCCUCGUCACUCAGCAGGGCAUCUCUGAGGGAAAUGCC [A79U A94G A138G] | 0.23 |
| UACGUAGGUGGUUUUCCCCUGAUAGUGCUAAGGGGGCCUGGAAGUUUGGACUGGGCAGAGCUCAACACAGCGUGGCAAUGUGGCUGUGGCUAGGCUGCCACUCUGGAUUCCUCGUCACUCAGCAGGGCAUCUCUGAGAGAAAUGCC [A79U A94G U100A] | 0.22 |
| UACGUAGGUGGUUUUCCCCUGAUAGUGCUAAGGGGGCCUGGAAGUUUGGACUGGGCAGAGCUCAACACAGCGUGGCAAUGUGGCUGUGGCUAGACUGCCUCUCUGGGUUCCUCGUCACUCAGCAUGGCAUCUCUGAGAGAAAUGCC [A79U A107G G125U] | 2.46 |
| UACGUAGGUGGUUUUCCCCUGAUAGUGCUAAGGGGGCCUGGAAGUUUGGACUGGGCAGAGCUCAACACAGCGUGGCAAUGUGGCUGUGGCUAUACUGCCUCUCUGUAUUCCUCGUCACUCAGCAGGGCAUCUCUGAGAGAAAUGCC [A79U G93U G106U] | 0.08 |
| UACGUAGGUGGUUUUCCCCUGAUAGUGCUAAGGGGGCCUGGAAGUUUGGACUGGGCAGAGCUCAACACAGCGUGGCAAUGUGGCUGCGGCUAGACUGCCUCUCCGGAUUCCUCGUCACUCAGCAGGGCAUCUCUGAGAGAAAUGCC [A79U U87C U104C] | 0.16 |
| UACGUAGGUGGUUUUCCCCUGAUAGUGCUAAGGGGGCCUGGAAGUUUGGACUGGGCAGAGCUCAACACAGCGUGGCAAUGUGGCUGUGGCUAGACCGCCUCUCUGCAUUCCUCGUCACUCAGCAGGGCAUCUCUGAGAGAGAUGCC [A79U U96C G106C A141G] | 0.1 |
| UACGUAGGUGGUUUUCCCCUGAUAGUGCUAAGGGGGCCUGGAAGUUUGGACUGGGCAGAGCUCAACACAGCGUGGCAAUGUGGCUGUGGCUAGACCGCCUCUCUGGAUUCCUCGUCACCCAGCAGGGCAUCUCUGAGAGUAAUGCC [A79U U96C U119C A140U] | 0.29 |
| UACGUAGGUGGUUUUCCCCUGAUAGUGCUAAGGGGGCCUGGAAGUUUGGACUGGGCAGAGCUCAACACAGCGUGGCAAUGUGGCUGUGGCUAGACUGCCUCUCUGGACUCCUCGUCACUCAGCAGGGCAUCUCUGAGAGGAAUGCC [A79U U108C A140G] | 1.53 |
| UACGUAGGUGGUUUUCCCCUGAUAGUGCUAAGGGGGCCUGGAAGUUUGGACUGGGCAGAGCUCAACACAGCGUGGCAAUGUGGCUGUGGCUAGACUGCCUCUCUGGAUUCCUCGCCACUCAGGAGGGCAUCUCUGAGAGAAAUGCC [A79U U115C C123G] | 1.53 |
| UACGUAGGUGGUUUUCCCCUGAUAGUGCUAAGGGGGCCUGGAAGUUUGGACUGGGCAGAGCUCAACACAGCGUGGCAAUGUGGCUGUGGCUAGACUGCCUCUCUGGAUUCCUCGUCACUCAGCAGGGCAUCCCCGAGAGAAAUGCC [A79U U132C U134C] | 1.99 |
| UACGUAGGUGGUUUUCCCCUGAUAGUGCUAAGGGGGCCUGGAAGUUUGGACUGGGCAGAGCUCAACACAGCGUGGCAAAAUGGCUGUGGCUAGGCUGCCUCUCUGGAUUCCUCGUCACUCAGCAGGGCGUCUCUGAGAGAAAUGCC [G80A A94G A129G] | 0.08 |
| UACGUAGGUGGUUUUCCCCUGAUAGUGCUAAGGGGGCCUGGAAGUUUGGACUGGGCAGAGCUCAACACAGCGUGGCAAAAUGGCUGUGGCUAGACUGCCUCUCUGGAUUCCUCGACACUCAGCAGGGCAUCUACGAGAGAAAUGCC [G80A U115A C133A U134C] | 1.57 |
| UACGUAGGUGGUUUUCCCCUGAUAGUGCUAAGGGGGCCUGGAAGUUUGGACUGGGCAGAGCUCAACACAGCGUGGCAAAGAGGCUGUGGCUUGACUGCCUCUCUGGAUUCCUCGUCACUCAGCAGGGCAUCUCUGAGGGAAAUGCC [U81A A92U A138G] | 1.15 |
| UACGUAGGUGGUUUUCCCCUGAUAGUGCUAAGGGGGCCUGGAAGUUUGGACUGGGCAGAGCUCAACACAGCGUGGCAAAGAGGCUGUGGCUAGACUGCCUCUCUGGGUUCCUCGUCACUCAGCAGGGCACCUCUGAGAGAAAUGCC [U81A A107G U130C] | 2.51 |

| Variant | self-cleavage |
| --- | --- |
| UACGUAGGUGGUUUUCCCCUGAUAGUGCUAAGGGGGCCUGGAAGUUUGGACUGGGCAGAGCUCAACACAGCGUGGCAAAGAGGCUGUGGCUAGACUGCCUCUCUGGAUUCCUCGUCACUCAGUAGGGCAUCUCUGAGAGAAACGCC [U81A C123U U143C] | 1.97 |
| UACGUAGGUGGUUUUCCCCUGAUAGUGCUAAGGGGGCCUGGAAGUUUGGACUGGGCAGAGCUCAACACAGCGUGGCAAAGAGGCUGUGGCUAGACUGCCUCUCUGGAUUCCUCGUCACUCAGCAGGGUAUCUCUGAGAGAAGUGCC [U81A C128U A142G] | 2.09 |
| UACGUAGGUGGUUUUCCCCUGAUAGUGCUAAGGGGGCCUGGAAGUUUGGACUGGGCAGAGCUCAACACAGCGUGGCAAAGAGGCUAUGGCUAGACUGCCUCUCUGGAUUCCUCGCCACGCAGCAGGGCAUCUCUGAGAGAAAUGCC [U81A G86A U115C U119G] | 0.03 |
| UACGUAGGUGGUUUUCCCCUGAUAGUGCUAAGGGGGCCUGGAAGUUUGGACUGGGCAGAGCUCAACACAGCGUGGCAAAGAGGCUGUGGCAAGACUGCCUCUCUGGAUUCCUCGUCACUCAACAGGGCAUCUCUGAGUGAAAUGCC [U81A U91A G122A A138U] | 1.07 |
| UACGUAGGUGGUUUUCCCCUGAUAGUGCUAAGGGGGCCUGGAAGUUUGGACUGGGCAGAGCUCAACACAGCGUGGCAAAGAGGCUGUGGCUAGACUGCCUCACUGGAUUCCUCGUCACUCAGCAGGGCAUCUCCGAGAGAAAUGCC [U81A U102A U134C] | 2.51 |
| UACGUAGGUGGUUUUCCCCUGAUAGUGCUAAGGGGGCCUGGAAGUUUGGACUGGGCAGAGCUCAACACAGCGUGGCAAAGAGGCUGUGGCUAGACUGCCUCACUGGAUUCCUCGUCACUCAGCAGGGCAUCUCUGAGAGAAACGCC [U81A U102A U143C] | 2.13 |
| UACGUAGGUGGUUUUCCCCUGAUAGUGCUAAGGGGGCCUGGAAGUUUGGACUGGGCAGAGCUCAACACAGCGUGGCAAAGAGGCUGUGGCUAGACUGCCUCUCUGGAUUCCACGUCACUCAGCAGGGCAUCUCCGAGAGUAAUGCC [U81A U112A U134C A140U] | 2.05 |
| UACGUAGGUGGUUUUCCCCUGAUAGUGCUAAGGGGGCCUGGAAGUUUGGACUGGGCAGAGCUCAACACAGCGUGGCAAAGAGGCUGUGGCUAGACUGCCUCUCUGGAUUCCCCGUCACUCAGCGGGGCACCUCUGAGAGAAGUGCC [U81A U112C A124G U130C A142G] | 1.64 |
| UACGUAGGUGGUUUUCCCCUGAUAGUGCUAAGGGGGCCUGGAAGUUUGGACUGGGCAGAGCUCAACACAGCGUGGCAAAGCGGCUGUGGCUAGACUGCCUCUCUGGAUUCCUCGUCCCUCAGCAGAGCAUCUCUGAGAGAAAUGCC [U81C A117C G126A] | 1.88 |
| UACGUAGGUGGUUUUCCCCUGAUAGUGCUAAGGGGGCCUGGAAGUUUGGACUGGGCAGAGCUCAACACAGCGUGGCAAAGCGGCUGUGGCUAGACUGCCUCUCUGGAUUCCUCGUCACUCCGCAGGGCGUCUCUGAGAGAAAUGCC [U81C A121C A129G] | 0 |
| UACGUAGGUGGUUUUCCCCUGAUAGUGCUAAGGGGGCCUGGAAGUUUGGACUGGGCAGAGCUCAACACAGCGUGGCAAAGCGGCUGUGGCUAGACUGCCUCUCUGGAUUCCUCGUCACUCAGCUGGGCAUCUCAGAGAGAAAUGCC [U81C A124U U134A] | 1.18 |
| UACGUAGGUGGUUUUCCCCUGAUAGUGCUAAGGGGGCCUGGAAGUUUGGACUGGGCAGAGCUCAACACAGCGUGGCAAAGCGGCUGUGGCUAGACUGCCUCUCUGGAUUCCUCGUCACUCAGCAGGGCAUCUCUGAGGGAAAUGCU [U81C A138G C146U] | 1.55 |
| UACGUAGGUGGUUUUCCCCUGAUAGUGCUAAGGGGGCCUGGAAGUUUGGACUGGGCAGAGCUCAACACAGCGUGGCAAAGCGGCUGUGGCUAGACUGCCUCUCUGGAUUCCUCGUCACUCAGCAGGGCAUCUCUGAGAGAGGUGCC [U81C A141G A142G] | 1.64 |
| UACGUAGGUGGUUUUCCCCUGAUAGUGCUAAGGGGGCCUGGAAGUUUGGACUGGGCAGAGCUCAACACAGCGUGGCAAAGCGGUUGUGGCUAGACUGCCUCUCUGGAUUCCUCGUCACUCAGCAGGGCAUCUCUGAGAGUAAUGCC [U81C C84U A140U] | 0.14 |
| UACGUAGGUGGUUUUCCCCUGAUAGUGCUAAGGGGGCCUGGAAGUUUGGACUGGGCAGAGCUCAACACAGCGUGGCAAAGCGGCUGUGGCUAGACUGCCUCUAUGGAUUCCUCGUCUCUCAGCAGGGCAUCUCUGAGAGAAAUGCC [U81C C103A A117U] | 2.14 |
| UACGUAGGUGGUUUUCCCCUGAUAGUGCUAAGGGGGCCUGGAAGUUUGGACUGGGCAGAGCUCAACACAGCGUGGCAAAGCGGCUGUGCCUAGACUGCCUCUCUGGAUUCCUCGUCACUCAGCAGGGCAUCUCUGGGAGAAAUGCC [U81C G89C A136G] | 0.14 |
| UACGUAGGUGGUUUUCCCCUGAUAGUGCUAAGGGGGCCUGGAAGUUUGGACUGGGCAGAGCUCAACACAGCGUGGCAAAGCGGCUGUGGCUAGACUGCCUCUCUAGAUUCCUCGUCACACAGCAGGGCAUCUCUGAGAGAAAUGCC [U81C G105A U119A] | 1.47 |
| UACGUAGGUGGUUUUCCCCUGAUAGUGCUAAGGGGGCCUGGAAGUUUGGACUGGGCAGAGCUCAACACAGCGUGGCAAAGCGGCUGUGGCUAGACUGCCUCUCUGGAUUCCUCAUCACUCAGCAGGGCUUCUCUGAGAGAAAUGCC [U81C G114A A129U] | 1.29 |
| UACGUAGGUGGUUUUCCCCUGAUAGUGCUAAGGGGGCCUGGAAGUUUGGACUGGGCAGAGCUCAACACAGCGUGGCAAAGCGGCAGUGGCUAGACUGCCUCUCUGGAUUCCUCGCCACUCAGCAGGGCAUCCCUGAGAGAAAUGCC [U81C U85A U115C U132C] | 0.13 |
